Source: paper PMC3911953
These are yes or no findings as the source states them, for the method shown. Binding seen in cells or lysates may run through a third protein. Some entries that bind do so weakly or less than the wild type. Tags and fused reporters may be left off the sequences shown.

Sequences of proteins named here, by UniProt entry; tags and fusion partners are left off. A change or cut given only in a name is not applied to a line headed by its entry. A line that says so, or that is headed by a name, gives the form on record, which may keep a tag or linker. Residues count along the entry.
UniProt Q9CZN4: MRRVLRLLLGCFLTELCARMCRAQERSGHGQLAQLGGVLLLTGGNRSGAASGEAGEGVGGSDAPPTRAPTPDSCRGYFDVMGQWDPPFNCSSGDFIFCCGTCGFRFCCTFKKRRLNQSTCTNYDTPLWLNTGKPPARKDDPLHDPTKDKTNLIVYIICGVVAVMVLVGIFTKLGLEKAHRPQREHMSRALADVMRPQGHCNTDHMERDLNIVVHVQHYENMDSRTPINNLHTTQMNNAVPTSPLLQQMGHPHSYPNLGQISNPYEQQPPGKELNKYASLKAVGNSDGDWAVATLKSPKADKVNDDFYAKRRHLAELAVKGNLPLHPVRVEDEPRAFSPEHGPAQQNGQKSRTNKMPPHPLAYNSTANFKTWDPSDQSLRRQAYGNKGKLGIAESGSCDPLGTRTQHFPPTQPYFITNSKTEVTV
HA-tagged Shisa9WT, full length: residues 24-424 of Q9CZN4
HA-tagged Shisa9ΔEVTV: residues 24-420 of Q9CZN4
UniProt Q925T6: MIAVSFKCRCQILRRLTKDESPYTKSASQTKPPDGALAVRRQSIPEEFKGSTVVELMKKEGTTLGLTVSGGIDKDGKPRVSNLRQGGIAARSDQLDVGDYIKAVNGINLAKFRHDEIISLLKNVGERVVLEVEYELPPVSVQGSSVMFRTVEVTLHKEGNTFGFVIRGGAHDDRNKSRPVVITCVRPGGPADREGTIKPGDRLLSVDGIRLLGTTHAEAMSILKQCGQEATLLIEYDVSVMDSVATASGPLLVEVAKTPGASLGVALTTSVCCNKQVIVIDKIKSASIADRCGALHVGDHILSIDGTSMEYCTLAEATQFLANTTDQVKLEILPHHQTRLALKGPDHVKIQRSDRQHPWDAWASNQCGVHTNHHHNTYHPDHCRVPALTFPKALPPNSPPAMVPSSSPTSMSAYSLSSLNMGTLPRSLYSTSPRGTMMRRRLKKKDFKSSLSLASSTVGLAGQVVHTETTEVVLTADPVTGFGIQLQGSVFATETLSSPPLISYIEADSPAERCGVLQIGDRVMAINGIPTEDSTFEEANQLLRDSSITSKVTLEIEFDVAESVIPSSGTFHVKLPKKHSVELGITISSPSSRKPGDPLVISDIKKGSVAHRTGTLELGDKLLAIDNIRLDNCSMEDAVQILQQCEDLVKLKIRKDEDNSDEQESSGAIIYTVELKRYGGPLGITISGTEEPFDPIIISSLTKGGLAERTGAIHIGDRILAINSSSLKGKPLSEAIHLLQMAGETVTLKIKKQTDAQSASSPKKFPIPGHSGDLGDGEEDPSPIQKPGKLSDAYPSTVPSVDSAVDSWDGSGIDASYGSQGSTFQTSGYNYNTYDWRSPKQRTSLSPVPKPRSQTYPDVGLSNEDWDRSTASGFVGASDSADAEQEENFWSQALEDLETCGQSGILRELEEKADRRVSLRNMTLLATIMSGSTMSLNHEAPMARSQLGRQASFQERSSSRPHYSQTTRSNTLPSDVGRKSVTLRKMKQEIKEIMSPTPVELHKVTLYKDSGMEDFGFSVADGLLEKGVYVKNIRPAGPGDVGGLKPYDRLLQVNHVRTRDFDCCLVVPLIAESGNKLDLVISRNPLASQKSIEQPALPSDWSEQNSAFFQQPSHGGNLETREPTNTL
UniProt Q62083: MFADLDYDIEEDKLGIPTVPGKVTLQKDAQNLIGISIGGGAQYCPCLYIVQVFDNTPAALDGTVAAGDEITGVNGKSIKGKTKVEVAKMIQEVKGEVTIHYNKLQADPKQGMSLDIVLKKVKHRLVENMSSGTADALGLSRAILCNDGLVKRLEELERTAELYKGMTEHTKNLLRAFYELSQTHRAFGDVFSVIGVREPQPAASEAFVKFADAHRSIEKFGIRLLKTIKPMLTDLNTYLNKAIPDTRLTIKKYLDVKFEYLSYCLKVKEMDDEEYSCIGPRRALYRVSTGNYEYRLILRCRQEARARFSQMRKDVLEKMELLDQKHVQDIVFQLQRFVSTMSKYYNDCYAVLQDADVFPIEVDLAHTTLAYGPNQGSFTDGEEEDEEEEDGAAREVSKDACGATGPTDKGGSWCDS

Experiments:
[1] = target: HA-tagged Shisa9WT, full length (mouse) (UniProt Q9CZN4); assay: co-IP; HEK293T cells co-transfected with HA-Shisa9 (WT or ΔEVTV) and one V5-tagged interactor; lysis in 25 mM HEPES/NaOH pH 7.4, 150 mM NaCl with 1% DDM (1% Triton X-100 for PICK1); precipitation with anti-HA, blot with anti-V5
[2] = target: HA-tagged Shisa9ΔEVTV (mouse) (UniProt Q9CZN4); assay: as above

Question: Which results are given for “V5-tagged GRIP1, full length (from UniProt Q925T6 1-1127)”?
Answer: binding [1]: binds; binding [2]: no binding

Question: Which results are given for “V5-tagged PICK1, full length (from UniProt Q62083 1-416)”?
Answer: binding [1]: binds; binding [2]: no binding

B1: V5-tagged Lin7b, full length (protein, UniProt O88951 1-207)
chain: MAALVEPLGLERDVSRAVELLERLQRSGELPPQKLQALQRVLQSRFCSAIREVYEQLYDTLDITGSAEVRAHATAKATVAAFTASEGHAHPRVVELPKTDEGLGFNIMGGKEQNSPIYISRVIPGGVADRHGGLKRGDQLLSVNGVSVEGEHHEKAVELLKAAQGSVKLVVRYTPRVLEEMEARFEKMRSARRRQQHHSYTSLESRG
Question: How did the binding [1] turn out when B1 was run?
Answer: binds

Question: What about the binding [2] of the same molecule?
Answer: no binding

B2: V5-tagged MPP5, full length (protein, UniProt Q9JLB2 1-675)
chain: MTTSYMNGHVTEESDSGIKNLDLASPEEYPKHREMAVDCPGDLGTRMMPVRRSAQLERIRQQQEDMRRRREEEGKKQELDLNSSMRLKKLAQIPPKTGIDNPIFDTEEGIVLESPHYAVNILDVEDLFSSLKHIQHTLVDSQSQEDISLLLQLVQNRDFQNAFKIHNAVTVHMSKASPPFPLIANVQDLVQEVQTVLKPVHQKEGQELTALLNAPHIQALLLAHDKVAEQEMQLEPITDERVYESIGHYGGETVKIVRIEKARDIPLGATVRNEMDSVIISRIVKGGAAEKSGLLHEGDEVLEINGIEIRGKDVNEVFDLLSDMHGTLTFVLIPSQQIKPPPAKETVIHVKAHFDYDPSDDPYVPCRELGLSFQKGDILHVISQEDPNWWQAYREGDEDNQPLAGLVPGKSFQQQREAMKQTIEEDKEPEKSGKLWCAKKNKKKRKKVLYNANKNDDYDNEEILTYEEMSLYHQPANRKRPIILIGPQNCGQNELRQRLMNKEKDRFASAVPHTTRNRRDHEVAGRDYHFVSRQAFEADIAAGKFIEHGEFEKNLYGTSIDSVRQVINSGKICLLSLRTQSLKTLRNSDLKPYIIFIAPPSQERLRALLAKEGKNPKPEELREIIEKTREMEQNNGHYFDTAIVNSDLDKAYQELLRLINKLDTEPQWVPSTWLR
Question: With B2 as the molecule, how does the binding [1] read?
Answer: no binding

B3: V5-tagged Dynlt3, full length (protein, UniProt P56387 1-116)
chain: MEGYQRPCDEVGFNADEAHNIVKECVDGVLGGNDYNENNINQWTASIVEQSITHLVKLGKAYKYIVTCAVVQRSPYGFHTASSCFWDTTSDGTCTIRWENRTMNCIVNVFAVAIVL
Question: How did the binding [1] turn out when B3 was run?
Answer: no binding
